The values below come from ChEMBL document CHEMBL1201862, “PubChem BioAssay data set” (2004).

Each structure is given as a SMILES string.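 All cell lines were grown in 96-well plates and treated with compound for 48 hours. GI50 is the concentration that inhibits growth by half.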 Active and inactive are the calls of the source. Rule as the data show it: active = GI50 up to about 1.1 µM and inactive = higher.

The subject of the assay is NCI-H322M. The assay can be described thus: growth of human tumour cells (NCI), 48 h.
In the case of `CC(C)Oc1cc(O)c2c(c1)OCC=C2CCC(=O)O`, the GI50 is inactive: 22.3 µM.
As for `COC(=O)C(=O)C(C(=O)C(=O)Nc1cc(C)ccc1C)c1nc2ccc(C(=O)c3ccccc3)cc2nc1O` (stereo unspecified), the GI50 was inactive: > 100 µM.
As to `COc1ccc(CC2C(=O)NC(C)C(=O)N(C)C3C(=O)N(C)C(Cc4ccc(O)c(c4)Oc4ccc(cc4)C3O)C(=O)NC(C)C(=O)NC(C)C(=O)N2C)cc1` (stereo unspecified), the GI50 is active: 0.00537 µM.
The figure for `NS(=O)(=O)c1ccc(NCc2cnc3ccccc3n2)cc1` is inactive: > 100 µM; for `CCOC(=O)c1ccc(/N=C/C=C(\Nc2ccc(C(=O)OCC)cc2)c2ccc3ccccc3c2)cc1` it is inactive: 25.5 µM; for `CCN1CCC(O)(c2ccccc2)C(C(=O)c2ccccc2)C1` (stereo unspecified) it is inactive: > 96.4 µM.
The figure for `NC(=O)c1nnsc1NC=O` is inactive: > 100 µM.
On to `CC(C)C1OC(/C=C/c2ccccc2)OCC1(C)C` (stereo unspecified), for which the GI50 was inactive: 38.1 µM.
For the compound `c1ccc(CSP234N5CCN2CCN3CCN4CC5)c(CSP234N5CCN2CCN3CCN4CC5)c1`, the GI50 is inactive: > 100 µM.
Turning to `COc1ccc(-c2cc(-c3cc(C)ccc3O)nc(O)n2)cc1`, the GI50 was inactive: > 100 µM.
As to `CCOC(=O)C(NC(=O)OC(C)(C)C)C(=O)OCC`, the GI50 was inactive: > 100 µM.
Regarding `N=c1oc2ccc(Cl)cc2cc1C(=O)Nc1ccccc1`, the GI50 is inactive: > 100 µM.
In the case of `COc1c2ccsc2c(OC)c2ccsc12`, the GI50 is inactive: > 100 µM.
The figure for `O=C1c2cccc3cc([N+](=O)[O-])cc(c23)C(=O)N1NC1=NCCN1` is inactive: > 100 µM; for `N=C(N)NS(=O)(=O)c1ccc(NC(=O)c2ccc(Cl)c3c(Nc4ccc(S(=O)(=O)N=C(N)N)cc4)c4ccccc4nc23)cc1` it is inactive: 66.5 µM; for `S=c1sc2sc(=S)sc2s1` it is inactive: > 100 µM.
In the case of `CC1(C)C2CC1C(/C=N\OCC(=O)O)=CC2=O` (stereo unspecified), the GI50 is inactive: > 100 µM.
The figure for `COc1cc(C(=O)NC2CCc3cc(OC)c(OC)c(OC)c3-c3ccc(OC)c(=O)cc32)cc(OC)c1OC` (stereo unspecified) is active: 0.186 µM; for `CC(C)(C)OC(=O)N1CC(COS(C)(=O)=O)c2ccc(O)cc21` (stereo unspecified) it is inactive: 2.87 µM.
Regarding `COc1ccccc1C1SCC(=O)N1c1ccc(-c2ccc(-n3c(-c4ccccc4)nc4ccccc4c3=O)cc2)cc1` (stereo unspecified), the GI50 is inactive: > 100 µM.
For `O=c1[nH]ccc2c1ccn2C1CC(O)C(CO)O1` (stereo unspecified), the GI50 is inactive: > 100 µM.
The figure for `COc1ccc(NC(=O)CC2SC(Nc3ccc(Cl)cc3C)=NC2=O)c([N+](=O)[O-])c1` (stereo unspecified) is inactive: > 100 µM.
For `COc1ccccc1/N=N/c1c(-c2ccccc2)nn(C(=O)CC(=O)Nc2cccc(C)c2)c1-c1ccccc1`, the GI50 is inactive: 67.3 µM.
The figure for `CCOC(=S)SC/C(=N\OC(C)(C)OC)c1ccccc1` is inactive: 95.3 µM; for `N=C(N)SCCCN` it is inactive: 22.4 µM; for `CCOC(=O)Cc1nc2nn(Cc3ccccc3)cc2c(=O)[nH]1` it is inactive: > 100 µM.
The figure for `CSc1nc(SC)c2c(CN=[N+]=[N-])c(Br)n(Cc3ccccc3)c2n1` is inactive: > 100 µM.
For `COc1ccccc1C1c2cc3c(cc2OC2(OC)COC(=O)C12)OCO3` (stereo unspecified), the GI50 is inactive: 40.6 µM.
For `O=C(N/N=C\c1cccs1)c1ccncc1`, the GI50 was inactive: > 100 µM.
On to `COc1ccc2c(c1)OC1c3ccccc3OCC21` (stereo unspecified), for which the GI50 was inactive: > 100 µM.
As for `C#CCN(N=O)C(=O)NC(CCCNC(=O)OCc1ccccc1)C(=O)OCc1ccccc1` (stereo unspecified), the GI50 was inactive: > 100 µM.
For `O=c1n(-c2ccccc2)c(=O)n2n1C1CCC2CC1`, the GI50 is inactive: > 100 µM.
Take `Cc1cccc(C(C)(C)C)c1NC(=O)/C(Cc1nc2ccc([N+](=O)[O-])cc2nc1O)=N\NC(=O)C[N+](C)(C)C`: the GI50 is inactive: > 100 µM.
On to `Clc1ccc2[nH]c(CC3CCCC3)nc2c1`, for which the GI50 was inactive: 20 µM.
As for `CCN(CC)C(=O)c1cc(OC(C)C)ccc1-c1c(C)cc(OC(C)C)c(OC)c1OC`, the GI50 was inactive: > 100 µM.
As for `COC(=O)CCCCC/C(=C\C(=O)C(Cl)(Cl)Cl)OC`, the GI50 was inactive: 26.2 µM.
Regarding `O=C(N/N=C/c1ccco1)c1cc(I)cc(I)c1O`, the GI50 is inactive: 13.7 µM.
Turning to `COC(=O)c1ccccc1C1CN=NC12Cc1cc3c(cc1C2=O)CCC3` (stereo unspecified), the GI50 was inactive: > 100 µM.
The same measure for `COC1(OC)C=CC2C1C1C=CC2C1(OC)OC` (stereo unspecified): inactive: > 100 µM; for `COc1cccc2c1/c(=C/c1ccc(N(C)C)cc1)c1cc(-c3ccccc3)[n+](C)n12`: active: 0.415 µM.
The same measure for `COC(=O)C1Cc2cc3c(cc2C1=O)CCC3` (stereo unspecified): inactive: > 100 µM; for `CN(C)c1ccc(/C=C2\N=C(NNc3ccccc3)NC2=O)cc1`: inactive: 35.6 µM; for `FC(F)(F)c1ccc2nc(Sc3ccccn3)cnc2c1`: inactive: 37.2 µM.
The figure for `CNc1ccc(C(=O)CC(O)CCC(C)C2OC(=O)CC(O)CC(=O)CC(O)CC(O)CC(O)CC(O)CC3(O)CC(O)C(C(=O)N4CCOCC4)C(CC(OC4OC(C)C(O)C(N)C4O)\C=C/C=C\C=C/C=C/C=C/C=C\C=C/C2C)O3)cc1` (stereo unspecified) is active: 0.259 µM; for `OC1(c2ccccc2)CC2CCC(C1)N2CCCC1(c2ccc(F)cc2)OCCO1` (stereo unspecified) it is inactive: > 100 µM; for `COc1ccc(OC)c(NCC(=O)Nn2cnc3ccc(S(=O)(=O)Nc4cc(OC)ccc4OC)cc3c2=O)c1` it is inactive: > 100 µM.
With `OC(CCN1CCN(CCOC(c2ccccc2)c2ccccc2)CC1)c1ccccc1` (stereo unspecified), the GI50 was inactive: 25.2 µM.
In the case of `O=c1/c(=C/c2ccccc2[N+](=O)[O-])sc2nnc(-c3ccco3)n12`, the GI50 was inactive: > 100 µM.
`C=C1CC(CC(=O)C(C)CC2CC(=C)C(=O)O2)OC1=O` (stereo unspecified): the GI50 was inactive: > 100 µM.
As for `COc1ccc(C(=O)C#Cc2cn(C3CC(O)C(CO)O3)c(=O)[nH]c2=O)cc1` (stereo unspecified), the GI50 was inactive: > 100 µM.
Consider `Cn1cc2c(=O)n3ncn(-c4ccc(Br)cc4)c3nc2n1`, for which the GI50 was inactive: > 100 µM.
The figure for `N#Cc1ccc(Oc2nc3ccccc3nc2C(=O)O)cc1` is inactive: > 100 µM; for `O=C1NNC2(C(=O)N1)c1ccccc1-c1ccccc12` it is inactive: > 10 µM; for `Cc1cc2c(cc1C)[n+]([O-])c(C(=O)C/C(=N/NC(=S)NN)C(=O)Nc1cccc(C(F)(F)F)c1)c[n+]2[O-]` it is inactive: > 100 µM.
The figure for `CC(=O)OCC1OC(Oc2cc(C)c(O)cc2C/C=C(\C)CC/C=C(\C)C[C@@H](C=C(C)C)OC(C)=O)C(O)C(OC(C)=O)C1OC(C)=O` (stereo partly specified) is inactive: > 50 µM.
The same measure for `CN(C)c1ccc(C2C(Cl)C(=O)N2NC(=O)c2c(Cl)c(Cl)c(Cl)c(Cl)c2-c2nc3ccccc3[nH]2)cc1` (stereo unspecified): inactive: 30.8 µM; for `COC(=O)C1=C(OC(=O)/C(=C/c2ccccc2)c2ccc([N+](=O)[O-])cc2)C(C(=O)OC)[C@@]2(O)[C@@H](C(=O)OC)[C@H](C)C[C@@H]1[C@@H]2C(=O)OC` (stereo partly specified): inactive: > 100 µM.
For the compound `COCn1cnc2c(=O)n(-c3ccc(C)cc3)c(=S)n(-c3ccc(C)cc3)c21`, the GI50 is inactive: > 100 µM.
With `CCc1ccccc1NC(=O)C1=C(C)NC(C)=C(C(=O)Nc2ccccc2CC)C1c1ccc(NC(C)=O)cc1`, the GI50 was inactive: 32.6 µM.
For the compound `COc1ccc2oc(=N)c(C(N)=O)cc2c1`, the GI50 is inactive: 60.4 µM.
On to `Cc1nc(Nc2nnc(-c3cc([N+](=O)[O-])cc([N+](=O)[O-])c3C)o2)sc1C(=O)CC(=O)Cc1nc2ccc(Cl)cc2nc1O`, for which the GI50 was inactive: > 100 µM.
`COc1ccc(/C=C/C2=NN(c3cccc(S(=O)(=O)O)c3)C3(C2)SCC(=O)N3c2nc3ccccc3s2)cc1` (stereo unspecified): the GI50 is inactive: 93.1 µM.
In the case of `NNC(=S)N/N=C(\C(=O)Nc1cccc(O)c1)C1C(=O)NC(=S)NC1=O`, the GI50 is inactive: > 100 µM.
The same measure for `O=C(O)CNc1c2ccccc2nc2ccccc12`: inactive: > 100 µM; for `N#CCCN(c1ccc(/C=C2\N=C(Cc3ccccc3)OC2=O)cc1)S(=O)(=O)c1ccccc1`: inactive: > 100 µM; for `CCOC(=O)N[C@@H]1C2CC(=O)C(O2)[C@@H]1OC` (stereo partly specified): inactive: > 100 µM.
With `O=C1C2C=CC(n3[nH]c(=O)n(Cc4ccccc4)c3=O)CC2C(=O)N1c1cccc(Cl)c1` (stereo unspecified), the GI50 is inactive: > 100 µM.
The same measure for `Cn1cc(C=C(C#N)C#N)c(=O)n(C)c1=O`: inactive: > 100 µM; for `COc1c2ccoc2c(S(=O)(=O)Nc2ccc(Cl)cc2)c2oc(C)cc(=O)c12`: inactive: > 100 µM; for `CC1(C)CC(=O)c2[nH]c3ccccc3c2CC(=O)NCCc2cn1cn2`: inactive: > 100 µM.
For `C=CCc1ccccc1C1CC2(C(=O)OC)OC1C(C(=O)OC)=C2C(=O)OC` (stereo unspecified), the GI50 was inactive: > 10 µM.
`CC1(C2COC(=O)C2)SCCCS1` (stereo unspecified): the GI50 was inactive: > 100 µM.
On to `N#Cc1ccc(N2CCOCC2)cc1`, for which the GI50 is inactive: > 100 µM.
Take `Oc1ccc(/C=C\c2nnc(/C=C\c3ccc(O)c(O)c3)s2)cc1O`: the GI50 was inactive: 18.3 µM.
For `COC(=O)/C(C#N)=C(\N)C(Cl)(Cl)Cl`, the GI50 was inactive: 5.69 µM.
In the case of `COc1cc(O)c2c(c1)C(=O)c1cc3c(c(O)c1C2=O)C(OC1OC(C)C(OC)C(O)C1OC)C(OC)C(C)(O)C3=O` (stereo unspecified), the GI50 is inactive: 5.9 µM.
The figure for `C/C=C(\C)C(=O)O[C@@H]1CC(C)(C)CC2C3=CCC4[C@]56CC[C@](O)(OC5)C(C)(C)C6CC[C@@]4(C)C3(C)CC[C@]21C(=O)O` (stereo partly specified) is inactive: > 100 µM; for `COC(=O)[C@]1(c2cc3ccccc3[nH]2)CC2CN(C(=O)OCc3ccccc3)C1C=C2OC` (stereo partly specified) it is inactive: 50.9 µM.
Regarding `Oc1ccc(-c2nc3ccc(Br)cc3s2)cc1`, the GI50 was inactive: 18.7 µM.
`Cc1cc(=O)oc2c(C)c(O)ccc12`: the GI50 is inactive: > 100 µM.
For the compound `COC(=O)NCCc1n[nH]c2c1C(=O)C=C(Nc1ccccc1OC)C2=O`, the GI50 was inactive: 27.2 µM.
